# In PubChem BioAssay AID463173 (ICCB-Longwood Screening Facility, Harvard Medical School, 2010):
# Among all 52,000 compounds or so, about 4,300 (8.3%) were called active. No stated cut-off is given here; in the data, active means survival mostly below about 52% (no sharp cut-off); inactive means mostly above about 56%. Some of the results follow.
# System: DeltatarO mutant
# Test: growth inhibition of S. aureus wild type versus tarO mutant, primary screen, teichoic acid synthesis inhibitors, RN4220, OD600 (AID 463173)
# Details: OD600, 18 h, hits give low values, screened at 18.75 µg/mL (by protocol)
row,Structure (SMILES),survival
1,O=C(CSc1nc2c(cnn2-c2ccc(F)cc2)c(=O)[nH]1)Nc1ccccc1C(F)(F)F,inactive: 106%
2,CC1CCc2c(sc(NC(=S)NC(=O)c3ccn(C)n3)c2C(N)=O)C1 (configuration not stated),inactive: 99%
3,CCC(=O)N1CCc2cc(S(=O)(=O)CCC(=O)NCc3ccc(OC)cc3)ccc21,inactive: 121%
4,Cc1ccc(CNc2oc(-c3ccc(COc4ccc(C)cc4)o3)nc2C#N)cc1,inactive: 65%
5,CCCOc1ccc(C(=O)NCC2OCCc3ccccc32)cc1 (configuration not stated),inactive: 49%
6,Cc1ccc(NC(=O)c2c(C)nc3sc(C(=O)Nc4ccc(F)cc4)c(N)c3c2-c2ccc(C)o2)c(C)c1,inactive: 60%
7,CC1CN(C(=O)CCC(=O)Nc2cc(F)ccc2F)c2ccccc2S1 (configuration not stated),inactive: 51%
8,Cc1ccc(C)c(NC(=O)Cn2c(=O)n(-c3ccc(CC(=O)NCC4CCCO4)cc3)c(=O)c3ccccc32)c1 (configuration not stated),inactive: 99%
9,O=C(Nc1ccc(Cl)cc1F)c1cnc2sc(N3CCOCC3)nn2c1=O,inactive: 73%
10,O=C(CSc1nnc(-c2ccccc2F)o1)Nc1cccc(C(F)(F)F)c1,inactive: 54%
11,COc1ccc(C2C(C(=O)Nc3ccc(Cl)cc3)=C(C)Nc3nc(SCc4cccc(C)c4)nn32)cc1OC (configuration not stated),inactive: 99%
12,COc1ccc(-c2nc(C)c(CCNC(=O)c3cccs3)s2)cc1OC,inactive: 84%
13,COc1ccccc1CNc1cc(C)nc2nc(-c3ccc(C)cc3)nn12,inactive: 93%
14,O=C(c1ccccc1)N1CCN(C2CCCCC2)CC1,inactive: 107%
15,CC(C)(C)OC(=O)N1CCC(c2c(C(=O)N3CCN(c4ccccn4)CC3)cnn2-c2ccccc2)CC1,inactive: 96%
16,Cc1ccc2nc(NC(=O)CSc3nccn3-c3ccc(Cl)cc3)sc2c1,inactive: 71%
17,COc1ccc(-n2c(SCC(=O)N3CCc4ccccc43)nc3c([nH]c4ccccc43)c2=O)cc1,inactive: 92%
18,CCOC(=O)C1CCCN(C(=O)Cn2ncc3c(C)n(Cc4ccccc4Cl)c(C)c3c2=O)C1 (configuration not stated),inactive: 125%
19,CCN(CC)CCCNC(=O)CCCn1ncn2c(cc3occc32)c1=O,inactive: 96%

row,Structure (SMILES),survival
1,COc1ccc(CN(C(=O)c2cc3ccccc3oc2=O)C2CCS(=O)(=O)C2)cc1OC (configuration not stated),inactive: 52%
2,CC1CCCCN1C(=O)Cn1ncc2c3ccccc3n(Cc3ccccc3F)c2c1=O (configuration not stated),active: 32%
3,CC(C)(C)C1CCc2c(sc3nc(-c4cc5ccccc5oc4=O)[nH]c(=O)c23)C1 (configuration not stated),inactive: 77%
4,COc1ccccc1-c1noc(-c2ccc(NC3CCCCC3)c([N+](=O)[O-])c2)n1,active: 41%
5,Cc1c(-c2cccc(NC(=O)Nc3ccc(Cl)cc3)c2)nc2ncccn12,active: -2%
6,c1ccc(-c2noc(-c3cccnc3NCc3ccco3)n2)cc1,active: 60%
7,COCCNC(=O)Cn1c(=O)n(CCCCCC(=O)NCc2ccccc2Cl)c(=O)c2sccc21,inactive: 77%
8,Cc1cccc(Cn2c(SCc3ccc(C(=O)NCc4ccccc4F)cc3)nc3ccncc32)c1,inactive: 84%
9,Cc1ccc(NC(=O)Cn2c(=O)oc3cc(S(=O)(=O)N4CCCCC4)ccc32)c(Cl)c1,inactive: 81%
10,Cc1oc2ncn(CC(C)C)c(=O)c2c1C(=O)NCCc1ccccc1,inactive: 96%
11,COc1cccc(OCC(=O)NCCS(=O)(=O)N2CCN(c3ccccc3F)CC2)c1,inactive: 78%
12,Cc1ccc(-c2nc(CNC(=O)Nc3ccccc3)c(C)o2)cc1,inactive: 71%
13,CCN(CC)C(=O)CSc1nc2ccsc2c(=O)n1Cc1ccccc1Cl,inactive: 81%
14,Cn1c(=O)n(C)c2cc(/C=C(/C#N)C(=O)NCc3ccco3)ccc21,inactive: 78%
15,CCc1nc2cccnc2n1-c1ccc(CC(=O)Nc2c(C)cccc2C)cc1,inactive: 67%
16,Cc1cc(C)n2c(Nc3ccc(C(C)C)cc3)c(-c3ccsc3)nc2n1,inactive: 102%
17,COCCCNC(=O)c1cnc2sc(N3CCCCCC3)nn2c1=O,inactive: 88%
18,Cc1ccc2c(c1)-c1c(cnn1CC(=O)N1CCN(c3ccccc3F)CC1)CO2,inactive: 73%
19,CCCCN(CCCNC(=O)CN1N=C(c2ccc(C)cc2)CCC1=O)c1ccccc1,inactive: 92%

row,Structure (SMILES),survival
1,COc1cccc(NC(=O)CCc2nc3c(C)nn(-c4ccc(C)cc4)c3n(C)c2=O)c1,inactive: 81%
2,O=c1c(=O)n(Cc2ccc(Cl)cc2)ccn1Cc1ccc(F)cc1,inactive: 54%
3,CCSc1nc2c(c(=O)[nH]c(=O)n2C)n1CC,inactive: 73%
4,Nc1nnc(SCC(=O)C2CC2)s1,inactive: 80%
5,Cc1ccc(NC(=O)c2ccc(CN3CC(=O)N4CCCCC4C3=O)cc2)cc1 (configuration not stated),active: -5%
6,CCc1cccc(NC(=O)Cn2c(=O)n(-c3cccc(Cl)c3)c(=O)c3c2c2cc(C)ccc2n3C)c1,inactive: 62%
7,Cc1ccc(S(=O)(=O)N(C)CC(=O)O)cc1,inactive: 80%
8,COc1ccc(OC)c(CNC(=O)c2cnc3c(C)cccn3c2=O)c1,inactive: 102%
9,CCc1nn2c(=O)cc(COC(=O)c3ccc(NC(=O)COc4ccc(C)cc4)cc3)nc2s1,inactive: 115%
10,Cn1c(SCC(=O)N2CCCc3ccccc32)ncc(C(=O)Nc2ccccc2)c1=O,inactive: 94%
11,COc1ccc2[nH]c3nc(SCC(=O)NC(C)(C)C)nnc3c2c1,inactive: 98%
12,CC1=C(C(=O)Nc2ccc(C)cc2C)C(c2ccc(C(=O)O)cc2)n2nc(SCc3ccccc3)nc2N1 (configuration not stated),inactive: 75%
13,CCOc1ccc(CNC(=O)CC(C)n2nc(C)cc2C)cc1OC (configuration not stated),inactive: 74%
14,CCOC(=O)N1CCN(C(=O)CN(C)S(=O)(=O)c2cc(Cl)ccc2Cl)CC1,inactive: 81%
15,Cc1ccc2c(c1)c1c(c(=O)n(-c3ccccc3)c(=O)n1CC(=O)c1ccc(F)cc1)n2C,inactive: 91%
16,Cc1ccc(OCCCC(=O)Nc2ccc3c(c2)OCO3)cc1,inactive: 100%
17,COc1ccc(-n2cc(-c3ccccc3)c3c(NC4CCCC4)ncnc32)cc1,inactive: 72%
18,Cc1cccc(Oc2nc3c(c(=O)n(C)c(=O)n3C)n2Cc2ccccc2)c1C,inactive: 53%
19,CC(C)(C)NS(=O)(=O)c1ccc(NC(=O)CN2C(=O)c3ccccc3C2=O)cc1,inactive: 91%
